Source: PubChem BioAssay AID445 (National Center for Advancing Translational Sciences (NCATS), 2006)
About 40 (0.04%) of roughly 110,000 compounds were called active. The shares of active, inactive and inconclusive entries below differ from those in the screen. Calls come from the whole dose curve; as a rule, active = well fitted curve in the direction sought with a large enough effect in the signal ratio (not every such curve was filed as active); inconclusive = small, poorly fitted or top-dose-only effect, or a change in a side signal; inactive = flat fitted curve, though single readings scatter; the % refers to the signal ratio. A potency beside an inconclusive call is a rough fit, not a confirmed value.

assay: IkB Signaling; settings: ABC-DLBCL IkBa-CBG/CBR dual luciferase ratio (green luciferase fused to IkBa over red control in OCI-Ly3 lymphoma cells), 4 h; IkBa stabilization activation: at 57.1 µM (top of the series), scaled: untreated 0%, proteasome inhibitor 100% unless noted;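 for IkBa stabilization activation: 0% = basal untreated cells and 100% = reference inhibitor full response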
Procedure, shortened: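 Luminescence ratio of IκBα-fused green versus native red beetle luciferase in OCI-Ly3 cells, 4 h post-doxycycline with compound; red signal alone, scaled from basal (0%) to zero light (-100%), flagged nonspecific or cytotoxic effects.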
Potency is the fitted concentration of half-maximal effect.

| SMILES | IkBa stabilization activation | Potency |
| --- | --- | --- |
| COc1cccc(Cn2c(=O)c(CCc3ccccc3)nc3cnc(OC)nc32)c1 | inactive: 0.127% [at 11.4 µM, scaled: untreated 0%, proteasome inhibitor 100%] |  |
| Cc1nc2nc(NCc3ccccc3Cl)[nH]n2c(=O)c1Cc1ccccc1 | inconclusive: -0.71% [signal inhibitor] |  |
| COc1cc(O)c2c(=O)cc(-c3ccccc3)oc2c1 | inactive: -3.97% [at 11.4 µM, scaled: untreated 0%, proteasome inhibitor 100%] |  |
| CN1CCN(c2nc(NCCOC34CC5CC(CC(C5)C3)C4)nc(OCC(F)(F)F)n2)CC1 | inactive: -0.539% |  |
| Cc1ccc(C)c(OCc2nc3ccccc3n2C)c1 | inactive: -2.18% |  |
| Cc1c(C(=O)OCc2ccccc2)[nH]c2c1C(=O)CC(c1ccco1)C2 (stereo not drawn) | inconclusive: 2.56% [signal activator] |  |
| Cc1cccc(N(C)S(=O)(=O)c2nnc(NC(=O)C(C)Oc3ccccc3)s2)c1 (stereo not drawn) | inactive: 4.08% |  |
| COc1ccc(OC)c(CCNC(=O)c2ccc3c(c2)N(Cc2ccccc2)CCS3)c1 | inconclusive: 3.53% [signal inhibitor] |  |
| COC(=O)c1sccc1S(=O)(=O)N1CCN(c2cccc(C)c2)C(C)C1 (stereo not drawn) | inconclusive: 1.01% [signal inhibitor] |  |
| CCOC(=O)c1cccc(NC(=O)C2COc3ccc(OC)cc3C2)c1 (stereo not drawn) | inconclusive: 6.23% [signal inhibitor] |  |
| COc1ccc(C)cc1NC(=O)CSc1nc(=O)n(Cc2ccco2)c2c1CCC2 | inconclusive: 12.7% [signal inhibitor] |  |
| CCN(CC)CC(=O)Nc1c(Br)ccc2c1OCO2 |  | inconclusive: 15.8 µM [signal inhibitor, partial curve] |
| COc1ccc(Nc2ncc3c(n2)CCN(Cc2sccc2C)C3)c(OC)c1 | inconclusive: 1.41% [signal inhibitor] |  |
| COc1ccc(OC)c(-c2cc(C(=O)Nc3c(C)nn(Cc4ccc(C)cc4)c3C)no2)c1 | inconclusive: 10.7% [signal inhibitor] |  |
| COc1ccc(C2Sc3nncn3N2Cc2ccc(C#N)cc2)cc1 (stereo not drawn) | inconclusive: 16.6% [signal inhibitor] |  |
| COc1ccc(C(CNC(=O)c2oc3cc(Br)ccc3c2C)N2CCCCC2)cc1 (stereo not drawn) | inconclusive: 0.727% [signal inhibitor] |  |
| O=[N+]([O-])c1ccc(S(=O)(=O)N2CCn3cccc3C2c2ccc(Br)cc2)cc1 (stereo not drawn) | inconclusive: 3.31% [signal inhibitor] |  |
| COc1ccc(-c2csc3ncnc(NCCN4CCOCC4)c23)cc1 | inactive: 0.45% |  |
| Cc1ccc(-n2nc(C(=O)N(C)c3ccc(C)c(C)c3)c3c4ccccc4n(C)c3c2=O)cc1 | inactive: -0.971% |  |
| Cc1ccc(NC(=O)c2c(C)oc3ccc(O)c(CN4CCN(Cc5ccccc5)CC4)c23)cc1 | inconclusive: 0.045% [signal inhibitor] |  |
| CCn1nnc(NC(=O)c2cccc(-c3cc4ccccc4oc3=O)c2)n1 | inconclusive: 3.53% [signal inhibitor] |  |
| COC(=O)c1ccc(NS(=O)(=O)c2ccc3c(c2)oc(=O)n3C)cc1 | inactive: 5.91% |  |
| COc1ccc(NC(=O)c2oc3ccccc3c2NC(=O)C2CC2)cc1 | inactive: 3.48% |  |

| SMILES | IkBa stabilization activation | Potency |
| --- | --- | --- |
| Cc1ccc(CN2CCC(CNC(=O)c3cnn(-c4ccc(C)cc4)c3C3CCN(C(=O)OC(C)(C)C)CC3)CC2)cc1 | inconclusive: 5.69% [signal inhibitor] |  |
| Cc1ccc(S(=O)(=O)N(CC(=O)Nc2cccnc2)c2cc(Cl)ccc2C)cc1 |  | inconclusive: 25.1 µM [signal inhibitor] |
| COc1ccc(NC(=O)CC2C(=O)N(c3ccccc3)C(=O)N2CCc2sccc2C)cc1 (stereo not drawn) | inconclusive: 0.608% [signal inhibitor] |  |
| Brc1ccc(-c2nn3c(-c4ccccn4)nnc3s2)o1 | inconclusive: 6.9% [signal inhibitor] |  |
| CCN(CC)S(=O)(=O)c1cc(-c2ccc(=O)n(C(C)C(=O)Nc3cccc(C#N)c3)n2)ccc1C (stereo not drawn) | inconclusive: 1.36% [signal inhibitor] |  |
| Cc1cc(C)cc(N(CC(=O)Nc2c(C)cc(C)cc2C)S(=O)(=O)c2c(C)nn(C)c2C)c1 | inconclusive: 0.904% [signal inhibitor] |  |
| COc1ccc(C(=O)Nc2nc3c(s2)Cc2c(Br)ccc(OC)c2-3)cc1OC | inconclusive: 1.71% [signal inhibitor] |  |
| COc1ccc(-c2noc(CSc3nnc(Cc4ccccc4)n3-c3ccc(F)cc3)n2)cc1 | inconclusive: 0.633% [signal inhibitor] |  |
| COc1ccc(CNC(=O)CCCn2ccc3cc(S(=O)(=O)N4CCCC4)ccc32)cc1 | inconclusive: 0.567% [signal inhibitor] |  |
| CC(C)(C)n1nc2c(c1NC(=O)COc1ccc(Cl)cc1)CSC2 | inconclusive: 2.03% [signal inhibitor] |  |
| COc1cc(C2c3c(-c4c(C)cc(C)cc4O)n[nH]c3C(=O)N2Cc2ccco2)cc(OC)c1OC (stereo not drawn) | inactive: -0.687% |  |
| COc1ccc2oc(-c3cccc(NC(=O)c4cc([N+](=O)[O-])ccc4N4CCOCC4)c3)nc2c1 | inactive: 0.428% |  |
| CCCCN(CCCC)CCCNC(=O)c1ccc2nc(N3CCCCC3)sc2c1 | inactive: -0.848% |  |
| COc1ccc(-c2nnn3c2nc(NCCc2ccc(OC)c(OC)c2)c2ccccc23)cc1 | inconclusive: 11.2% [signal inhibitor] |  |
| Cc1ccccc1NC(=O)c1c(NC(=O)c2ccccc2F)sc2c1CCC(C)C2 (stereo not drawn) |  | inconclusive: 15.8 µM [signal inhibitor, partial curve] |
| CCCCN1C(=O)c2[nH]nc(-c3ccccc3O)c2C1c1ccc(OCc2ccccc2)c(OC)c1 (stereo not drawn) | inconclusive: 0.0146% [signal inhibitor] |  |
| COc1ccc(Cn2ccc3nc(C)c(C(=O)N4CCN(c5ccc(F)cc5)CC4)cc3c2=O)cc1 | inconclusive: 2.21% [signal inhibitor] |  |
| Cc1ccc(Sc2c(C)nn(C(C)(C)C)c2OC(=O)CC(C)C)cc1 | inconclusive: 13.5% [signal inhibitor] |  |
| CCOC(=O)c1cccc(NC(=O)CCc2c(C)nn(-c3ccc(N4CCCCC4)nn3)c2C)c1 | inconclusive: 2.39% [signal inhibitor] |  |
| Cc1cccc(NC(=O)C2CCCN(C(=O)NC3CCCCC3)C2)c1C (stereo not drawn) | inconclusive: -2.65% [signal activator] |  |
| CC(C)CCNc1nc2c(-c3ccccc3)nnn2c2ccccc12 | inconclusive: 5.8% [signal inhibitor] |  |
| Oc1ccc(OCc2ccccc2)cc1 | inactive: -9.51% [at 25.6 µM, scaled: untreated 0%, proteasome inhibitor 100%] |  |
| CCCCn1c(SCC(=O)c2cc(OC)ccc2OC)nc2cc(S(N)(=O)=O)ccc21 | inactive: 0.0576% |  |

| SMILES | IkBa stabilization activation | Potency |
| --- | --- | --- |
| CCOCCCn1c(=N)c(C(=O)NCc2ccc3c(c2)OCO3)cc2c(=O)n3cccc(C)c3nc21 | inactive: 0.638% |  |
| CCOc1ccc(CNC(=O)c2ccc(CSc3nc4ccncc4n3Cc3ccc(F)cc3)cc2)cc1 | inconclusive: -1.16% [signal inhibitor] |  |
| CCCOc1ccc2c3c(c(=O)oc2c1OCCC)CCC3 | inconclusive: 4.34% [signal inhibitor] |  |
| CN(C)c1nc(-c2ccccc2C(F)(F)F)nc2ccccc12 | inactive: 2.39% [at 11.4 µM, scaled: untreated 0%, proteasome inhibitor 100%] |  |
| COc1cccc(-c2cc(C(=O)Nc3cnn(Cc4ccc(Cl)cc4Cl)c3)no2)c1 | inactive: 3.9% |  |
| COc1cccc(NC(=O)c2oc3ccccc3c2NC(=O)c2ccccc2C)c1 | inconclusive: 6.22% [signal inhibitor] |  |
| COc1cccc(C(=O)Nc2ccc3nc(N4CCOCC4)cc(C)c3c2)c1 | inconclusive: 16.8% [signal inhibitor] |  |
| Cc1nn(-c2ccccc2)c2nc(C3CC3)cc(C(=O)Nc3cccc(F)c3)c12 | inconclusive: -1.99% [signal inhibitor] |  |
| CC(=O)Nc1ccc(NC(C)=O)s1 | inactive: 5.1% |  |
| COc1ccc(C(=O)Nc2ccc3nc(SCC(=O)N4CCCc5ccccc54)sc3c2)cc1 | inconclusive: 2.66% [signal inhibitor] |  |
| COC(=O)c1sccc1S(=O)(=O)N(CC(=O)NCc1ccc(C)cc1)c1ccc(Cl)cc1 | inactive: -0.969% |  |
| CCN(CC)C(=O)c1sc2c(c1C)c(=O)n(-c1ccc(Cl)c(Cl)c1)c(=O)n2Cc1cc(=O)n2c(C)cccc2n1 | inactive: -1.23% |  |
| COc1ccc(CC(=O)Nc2oc(-c3ccccc3)c(-c3ccccc3)c2C#N)cc1OC | inconclusive: 4.97% [signal inhibitor] |  |
| O=C(NCCc1ccccn1)c1n[nH]c(=O)c2ccccc12 | inconclusive: 3.69% [signal inhibitor] |  |
| Nn1c(-c2ccccn2)nnc1-c1ccccn1 | inactive: 7.97% |  |
| Cc1ccc(-c2nc(C)c(CCNS(=O)(=O)c3ccccc3F)s2)cc1 | inconclusive: -0.908% [signal inhibitor] |  |
| COc1cc(NS(C)(=O)=O)ccc1Nc1c2ccccc2nc2ccccc12 | inactive: -15.3% |  |
| CN1C(=O)C(C)(C)c2cc(S(=O)(=O)NCc3ccc(C(=O)Nc4ccc(Cl)cc4)cc3)ccc21 | inconclusive: -0.695% [signal inhibitor] |  |
| O=C(COc1ccc2c(c1)CCC2)N1CCc2ccccc21 | inconclusive: 2.21% [signal inhibitor] |  |
| CCc1ccc(-n2nc(C)c3c(C(=O)Nc4cc(OC)cc(OC)c4)cc(C)nc32)cc1 | inconclusive: -0.212% [signal inhibitor] |  |
| COc1ccc(CNC(=O)Cn2c(SCC(=O)Nc3ccc(C)c(C)c3)nc3ccccc32)cc1 | inactive: -0.0823% |  |
| CC(C)(C)OC(=O)N1CCC[C@H]1c1nnc(SC/C=C/c2ccccc2)o1 | inconclusive: 4.15% [signal inhibitor] |  |
